Data from PubChem BioAssay AID652106 (National Center for Advancing Translational Sciences (NCATS), 2013).
Screen size: about 370,000 compounds; about 500 (0.14%) were called active. The shares of active, inactive and inconclusive entries below differ from those in the screen. The call rests on the fitted dose curve; in most records, active means well fitted activation curve with a large enough effect; inconclusive means small, poorly fitted or top-dose-only effect; inactive means no such curve, though single readings can be large or run the other way. Potencies of inconclusive entries are doubtful fits and often do not repeat.

Test: qHTS of alpha-syn Inhibitors; further: nearly all actives have a fitted effect of over 65% in size; on growth rescue (activation): % of control where 0% means no effect
Details: Yeast expressing alpha-synuclein, BacTiter-Glo, 24 h; Potency: growth rescue unless noted; growth rescue (activation): at 46.1 µM (top of the series) unless noted
Outline: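 Readout is rescue of growth in alpha-synuclein-expressing yeast, so inhibitors of toxicity appear as activators. Growth after 24 hr at 30 deg C in galactose medium is quantified by luminescence.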
Potency means the concentration at half of the fitted maximal effect; tags describe the fitted curve by direction and shape.

Potency, active:
Oc1ccc(N=Nc2ccc3c(c2)OCCO3)c2cccnc12 20 µM

Potency, inconclusive:
CC(=O)/C(=C/c1ccccc1)C(=O)Nc1ccccc1C 12.6 µM [activator, single point]
Cc1ccc2c(c1)ncc[n+]2CC(=O)c1ccc(Cl)cc1Cl 14.1 µM [activator, partial curve]
CCCCCCCCN1C(=O)[C@H](CC(=O)NCCCOCCCC)C[C@@]2(C(=O)OCC)CCCC=C12 31.6 µM [activator, single point]
O=C(NCc1ccccc1Cl)C1CCCN(C(=O)Nc2ccc(F)cc2)C1 (centres undefined) 31.6 µM [activator, single point]
Cc1ccc(S(=O)(=O)Oc2cccc([N+](=O)[O-])c2)cc1 3.16 µM [activator, single point]
CNC(=S)N(CCc1c(C)[nH]c2ccc(C)cc12)Cc1cccs1 35.5 µM [activator, single point]
Cc1ccccc1NC(=O)c1ccc2c(O)c(S(=O)(=O)c3ccccc3)c(=O)[nH]c2c1 5.62 µM [activator, single point]
CCCn1c(O)c(N=NC(=O)CNC(=O)c2cccnc2)c2ccccc21 20 µM [activator, single point]
CCN1CCN(c2nc(Nc3ccc(C)c(C)c3)nc(N)c2[N+](=O)[O-])CC1 35.5 µM [activator, single point]
CCN1C(=O)[C@H]2[C@@H](c3ccc(SC4CCCCC4)c(OC)c3)N3CCCC[C@@]3(C(=O)OC)[C@H]2C1=O 17.8 µM [activator, single point]
COc1ccc(C(=O)N2CCN(c3ccc(C(C)=O)cc3)CC2)cc1S(=O)(=O)N1CCCC1 5.01 µM [activator, single point]
O=C(c1cc(-c2ccc(O)cc2)on1)N1CCCC1 28.2 µM [activator, single point]
CSCCC(NC(=O)COc1ccccc1)C(=O)N1CCN(c2cccc(C(F)(F)F)c2)CC1 (centres undefined) 12.6 µM [activator, single point]
O=C(Nc1ccc(F)cc1F)C1CCN(S(=O)(=O)c2ccc3[nH]c(=O)ccc3c2)CC1 3.98 µM [activator, single point]
CCOc1ccc(Cn2c(=O)sc3ccccc32)cc1OC 35.5 µM [activator, single point]
O=C(NCCCN1CCOCC1)c1cc(-c2cccs2)on1 31.6 µM [activator, single point]
CC(=O)NC(CCc1ccc(Cl)c(Cl)c1)c1cccc(O)c(=O)c1 (centres undefined) 35.5 µM [activator, single point]
CC(C)(C)NC(=O)CN(C(=O)c1ccc(Cl)nc1)c1cccc2ccccc12 35.5 µM [activator, single point]
Cc1[nH]n(-c2ccccc2)c(=O)c1/C=N/NC(=O)c1ccoc1C 15.8 µM [activator, single point]
Cc1ccc(-c2csc3ncn(Cc4ccc(C(=O)O)cc4)c(=O)c23)cc1C 31.6 µM [activator, single point]
Cc1cc(C)c(C)c(S(=O)(=O)N2CCC(C(=O)NCc3cccs3)CC2)c1C 12.6 µM [activator, single point]
CC(NS(=O)(=O)c1ccc(N)cc1)C1CC2CCC1C2 (centres undefined) 12.6 µM [activator, single point]
COC(=O)c1ccc(NC(=O)c2nc(S(=O)(=O)Cc3ccccc3F)ncc2Cl)cc1 3.16 µM [activator, single point]
Cc1cc(C)c2c(c1)C(=O)/C(=C/c1ccc(C(=O)O)cc1)CC2 3.98 µM [activator, full curve]
COc1ccc(/C=N/c2oc(C)c(C)c2C#N)c(OC)c1 3.16 µM [activator, single point]
Oc1ccc2ccccc2c1C1Nc2cccc3cccc(c23)N1 28.2 µM [activator, single point]
Cc1cccc(OCc2nc(-c3ccccn3)n[nH]2)c1 35.5 µM [activator, single point]
O=C(NC1(c2ccccc2)CC1)C1CCC(=O)N(Cc2ccc(Cl)cc2)C1 (centres undefined) 5.62 µM [activator, single point]
O=[N+]([O-])c1ccc2oc(C(O)c3cccc(Cl)c3)cc2c1 (centres undefined) 10 µM [activator, partial curve]
Oc1cccc2ccc(/C=C/c3cccs3)nc12 31.6 µM [activator, single point]
CSCCC(NS(=O)(=O)c1ccc(Cl)cc1)C(=O)OCc1c(Cl)cccc1Cl (centres undefined) 11.2 µM [activator, single point]

Growth rescue (activation), inconclusive:
O=C1CSC(=S)N1/N=C/c1cc(Br)c(O)c(Br)c1 -32.7% [activator]

Growth rescue (activation), inactive:
O=S(=O)(NCc1csc(-c2cccs2)n1)c1ccc(Cl)cc1 14.6%
CC(=O)CCc1ccc(Oc2nc(-c3cccnc3)nc3ccccc23)cc1 9.16%
CCOC(=O)CCCSc1nc(-c2ccc3c(c2)OCO3)cc(C(F)(F)F)c1C#N -3.71%
O=C(Nc1cccc2cccnc12)c1ccc(Br)cc1 -17%
COc1ccccc1NC(=O)OCC#CCOC(=O)Nc1ccccc1OC 0.983%
O=C(NNc1nc2ccccc2s1)c1ccc(F)cc1 -5.12%
CC(=O)c1c(O)c2ccccc2n(C)c1=O 6.45%
Cc1ccc(Nc2nc(N)c3ccccc3n2)cc1Cl -12.2%
O=C(OCC(=O)N1CCCc2ccccc21)c1ccccc1[N+](=O)[O-] 6.08%
CSc1nc2ccccc2n1CC(=O)Nc1cc(C(F)(F)F)ccc1N1CCOCC1 1.87%
COc1cc(OC)cc(C(=O)Nc2ccc(Nc3ccccc3)cc2)c1 8.66%
